Assay results taken from US7592316B2, “Peptides as NS3-serine protease inhibitors of hepatitis C virus” (Schering Corporation, priority 2000, dated 2009).
*1 amine or outer side, *2 acyl side, *3 side chain or, on linkers, in order; H or OH if unused. Where a SMILES comes first, the peptide text is derived from it. [ ]: non-standard residue; d: D form. The star is where a group is joined. ξ: configuration not given here. Pro(trans-3-OtBu) = CC(C)(C)O[C@H]1CCN[C@@H]1C(=O)O; Pro(4,4-S(CH2)3S) = O=C(O)[C@@H]1CC2(CN1)SCCCS2; Benzoyl(3-COOH) = O=C(O)c1cccc(C(=O)*)c1; Neopentyloxycarbonyl = CC(C)(C)COC(=O)*; Gly(2-thienyl) = N[C@H](C(=O)O)c1cccs1; X25 = O=C(O)c1c(F)c(F)c(F)c(F)c1C(=O)*; X12 = CCC[C@H](N[*:1])C(=O)C(=O)[*:2]; Isobutyloxycarbonyl = CC(C)COC(=O)*; ξPhg(3-Cl) = NC(C(=O)O)c1cccc(Cl)c1; Pro(4-oxo) = O=C1CN[C@H](C(=O)O)C1; X4 = CCCCC(N[*:1])C(=O)C(=O)[*:2]; Hyp = O=C(O)[C@@H]1C[C@@H](O)CN1; X2 = CCCC(N[*:1])C(=O)C(=O)[*:2]; Chg = N[C@H](C(=O)O)C1CCCCC1; Phg = N[C@H](C(=O)O)c1ccccc1; Tle = CC(C)(C)[C@H](N)C(=O)O; X39 = O=C(O)C1(C(=O)*)CC1; ξChg = NC(C(=O)O)C1CCCCC1; ξPhg = NC(C(=O)O)c1ccccc1; ξTle = CC(C)(C)C(N)C(=O)O; Carboxymethyl = O=C(O)C*; Orn = NCCC[C@H](N)C(=O)O; Boc = CC(C)(C)OC(=O)*; ξNle = CCCCC(N)C(=O)O; ξV = CC(C)C(N)C(=O)O; Bn = c1ccc(C*)cc1; OtBu = CC(C)(C)O*; tBu = CC(C)(C)*; MEM = COCCOC*

Each compound was assayed against HCV NS3/NS4A protease (strain 1a) (Hepatitis C virus genotype 1a, UniProt P27958) (assay: biochemical). Details: Compounds prepared by Solid Phase Synthesis, Table 3; read-out: Ki* CLASS.

Compound	Ki [nM]
CCCCC(NC(=O)CNC(=O)C(=O)C(CCC)NC(=O)[C@@H]1C[C@@H](OCOCCOC)CN1C(=O)C(NC(=O)C1(C(=O)O)CC1)C1CCCCC1)C(N)=O (stereo partly drawn) (X39-[ξChg][Hyp](MEM)[X2]G[ξNle]-NH2)	> 1000
CCCC(NC(=O)[C@@H]1C[C@@H](OC(C)(C)C)CN1C(=O)[C@@H](NC(=O)c1c(F)c(F)c(F)c(F)c1C(=O)O)C1CCCCC1)C(=O)C(=O)NCC(=O)N[C@H](C(N)=O)c1ccccc1 (stereo partly drawn) (X25-[Chg][Hyp](tBu)[X2]G[Phg]-NH2)	1 to 100
CCCC(NC(=O)[C@@H]1CCCN1C(=O)C(NC(=O)OCC(C)C)C(C)C)C(=O)C(=O)NCC(=O)NC(C(N)=O)C(C)(C)C (stereo partly drawn) (Isobutyloxycarbonyl-[ξV]P[X2]G[ξTle]-NH2)	> 1000
CCCC(NC(=O)[C@@H]1C[C@@H](OCc2ccccc2)CN1C(=O)[C@H](CCCNC(=O)c1c(F)c(F)c(F)c(F)c1C(=O)O)NC(=O)OCC(C)C)C(=O)C(=O)NCC(=O)N[C@H](C(N)=O)c1ccccc1 (stereo partly drawn) (Isobutyloxycarbonyl-[Orn](X25)[Hyp](Bn)[X2]G[Phg]-NH2)	> 1000
CCCC(NC(=O)[C@@H]1C[C@@H](OC(C)(C)C)CN1C(=O)[C@@H](NC(=O)c1cccc(C(=O)O)c1)C1CCCCC1)C(=O)C(=O)NCC(=O)NC(C(N)=O)c1cccc(Cl)c1 (stereo partly drawn) ({Benzoyl(3-COOH)}-[Chg][Hyp](tBu)[X2]G[ξPhg(3-Cl)]-NH2)	101 to 1000
CCCC(NC(=O)[C@@H]1C[C@@H](OC(C)(C)C)CN1C(=O)[C@@H](NC(=O)c1ccccc1C(=O)O)C1CCCCC1)C(=O)C(=O)NCC(=O)NC(C(N)=O)c1cc(C)cc(C)c1 (stereo partly drawn)	101 to 1000
CCCC(NC(=O)[C@@H]1C[C@@H](OCC(=O)O)CN1C(=O)C(NC(=O)OCC(C)C)C(C)C)C(=O)C(=O)NCC(=O)NC(C(N)=O)c1ccccc1 (stereo partly drawn) (Isobutyloxycarbonyl-[ξV][Hyp](Carboxymethyl)[X2]G[ξPhg]-NH2)	> 1000

Same assay, conditions: HCV protease continuous assay results, Table 1; read-out: Ki* Range

Compound	Ki [nM]
C=CCNC(=O)C(=O)[C@H](CCC)NC(=O)[C@@H]1CCCN1C(=O)[C@@H](NC(=O)CCCCCc1ccccc1)C(C)C [Example 26]	> 1000
C=CCNC(=O)C(=O)C(CCC)NC(=O)[C@@H]1CCCN1C(=O)[C@@H](NC(=O)[C@@H](N)Cc1ccccc1)C(C)C (stereo partly drawn) [Example 56]	> 1000
CCCC(NC(=O)[C@@H]1CC2(CN1C(=O)[C@@H](NC(=O)OCC(C)(C)C)C(C)(C)C)SCCCS2)C(=O)C(=O)NCC(=O)NC(C(=O)N(C)C)c1ccccc1 (stereo partly drawn) [Example 185] (Neopentyloxycarbonyl-[Tle][Pro(4,4-S(CH2)3S)][X2]G[ξPhg]-NMe2)	1 to 100
CCCC(NC(=O)[C@@H]1[C@@H]2[C@H](CN1C(=O)[C@@H](NC(=O)OC(C)(C)C)C(C)(C)C)C2(C)C)C(=O)C(=O)N[C@@H](C)C(=O)OC (stereo partly drawn) [Example 358]	> 1000
CCCCC(NC(=O)[C@@H]1C[C@@H](OC(C)(C)C)CN1C(=O)[C@@H](NC(=O)OCC(C)C)C(C)(C)C)C(=O)C(=O)NCC(=O)N[C@H](C(=O)N(C)C)c1cccs1 (stereo partly drawn) [Example 318] (Isobutyloxycarbonyl-[Tle][Hyp](tBu)[X4]G[Gly(2-thienyl)]-NMe2)	1 to 100
CCCC(NC(=O)[C@@H]1CC(=O)CN1C(=O)[C@@H](NC(=O)OCC(C)C)C1CCCCC1)C(=O)C(=O)NCC(=O)NC(C(=O)O)c1ccccc1 (stereo partly drawn) [Example 107] (Isobutyloxycarbonyl-[Chg][Pro(4-oxo)][X2]G[ξPhg]-OH)	101 to 1000
CCCC(NC(=O)[C@@H]1CC2(CN1C(=O)[C@@H](NC(=O)OCC(C)C)C(C)(C)C)SCCCS2)C(=O)C(=O)NCC(=O)NC(C(=O)OC(C)(C)C)c1ccccc1 (stereo partly drawn) [Example 130] (Isobutyloxycarbonyl-[Tle][Pro(4,4-S(CH2)3S)][X2]G[ξPhg]-OtBu)	101 to 1000

Same assay, conditions: Table 5; HCV NS3/NS4A protease, 30° C., pH 6.5; read-out: Ki* Range

Ki [nM]	Compound
101 to 1000	C=CCCC(NC(=O)[C@@H]1[C@H]2[C@@H](CN1C(=O)[C@@H](NC(=O)NCCC)C1Cc3ccccc3C1)C2(C)C)C(=O)C(=O)NCC=C (stereo partly drawn)
1 to 100	C=CCCNC(=O)C(=O)C(CCC=C)NC(=O)[C@@H]1[C@H]2[C@@H](CN1C(=O)C(NC(=O)OC(C)C)C1CCCCC1)C2(Cl)Cl (stereo partly drawn)
101 to 1000	CCCNC(=O)CNC(=O)C(=O)C(CCC)NC(=O)[C@@H]1C2C(CN1C(=O)C(NC(=O)OC(C)(C)C)C1CCCCC1)C2(C)C (stereo partly drawn)
101 to 1000	C=CCNC(=O)C(=O)C(CCC)NC(=O)[C@@H]1[C@@H]2[C@H](CN1C(=O)[C@@H](NC(=O)NC(C)(C)C)C(C)(C)C)C2(C)C (stereo partly drawn)
1 to 100	COCC(NC(=O)[C@@H]1[C@@H]2[C@H](CN1C(=O)[C@@H](NC(=O)OC(C)(C)C)C1CCCCC1)C2(C)C)C(=O)C(=O)NCCC(=O)OC(C)(C)C (stereo partly drawn)
101 to 1000	C=CCCC(NC(=O)[C@@H]1[C@@H]2[C@H](CN1C(=O)[C@@H](NC(=O)NC(C)(C)C)C1CCCCC1)C2(C)C)C(=O)C(=O)NCCCS(C)(=O)=O (stereo partly drawn)

More lines, now with the values behind:

Compound	Ki [nM]
C=CCNC(=O)C(=O)C(CCC)NC(=O)[C@@H]1CC[C@H](C)N1C(=O)[C@@H](NC(=O)OC(C)(C)C)C1CCCCC1 (stereo partly drawn)	> 1000
C=CCCNC(=O)C(=O)C(CCC=C)NC(=O)[C@@H]1[C@@H]2[C@H](CN1C(=O)[C@@H](NC(=O)NC13CC4CC(CC(C4)C1)C3)C1Cc3ccccc3C1)C2(C)C (stereo partly drawn)	101 to 1000

Same assay, conditions: Table 5; HCV NS3/NS4A protease, spectrophotometric assay, 30° C., pH 6.5; read-out: Ki* Range

Compound	Ki [nM]
C=CCNC(=O)C(=O)C(CCC)NC(=O)[C@@H]1[C@@H]2[C@H](CN1C(=O)[C@@H](NC(=O)OC1CCCC1)C1CCCCC1)C2(C)C (stereo partly drawn)	101 to 1000
CCC[C@H](NC(=O)[C@@H]1[C@@H](OC(C)(C)C)CCN1C(=O)[C@@H](NC(=O)OC(C)(C)C)C(C)(C)C)C(=O)C(=O)NCC(=O)NC(C(=O)N(C)C)c1ccccc1 (stereo partly drawn) (Boc-[Tle][Pro(trans-3-OtBu)][X12]G[ξPhg]-NMe2)	> 1000
